Results from the supplement of paper PMC3334620.
In all, about 33,000 sequences were measured (“E-score (-0.5 to 0.5)”: median about -0.056, highest 2% from about 0.38 on). The list shows a part of the results.

Each sequence was assayed against Stb4 (UniProt P50104) (assay: PBM E-score (8-mer binding enrichment) (E-score (-0.5 to 0.5)); higher = stronger / more preferred TF binding; most listed sequences are background and not binding sites). Conditions: protein concentration: 200 nM; construct: GST-DNA-binding domain.
How it was run: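 GST-tagged yeast TFs (full-length or DNA-binding domain) were made by PURExpress in vitro transcription/translation and applied at about 100-200 nM to universal all-10-mer Agilent arrays. The arrays were made double-stranded by primer extension, on fresh or once-stripped slides. Bound protein was detected with fluorescent anti-GST, and scans were normalised with masliner. Each ungapped eight-base word, pooled with its reverse complement, received an E-score (modified Wilcoxon-Mann-Whitney statistic) from the Universal PBM Analysis Suite.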

Sequence	PBM E-score
ATATAGTG	0.0301
ACTCGCAC	-0.013
ACCGCACG	-0.0588
AATGTTCC	0.218
CCCGTCGG	0.386
GTTCACTA	0.0434
CAATTGCG	-0.0138
GCCCCAAC	-0.0431
AGGTCATC	-0.0883
ATCAACTG	-0.046
ACAGCCTA	-0.0622
GCCGTTAA	0.0637
AAGAGGTC	-0.0783
CTTTGCAC	-0.123
ACATAGCG	-0.168
GCATCCTA	-0.163
CAGGAGAC	-0.147
CAATGGTC	-0.203
CAAATCCG	0.232
TCAGTGCA	-0.142
AAAGGTTC	0.0344
CACAACAG	-0.278
CTTGGTCC	0.0297
AGAATACG	-0.0662
AAGGGAAG	-0.0989

Sequence	PBM E-score
CAGCAGGA	-0.246
AACCGGGA	0.231
GAACACAC	-0.0596
AGAAGTTC	-0.0927
CTATACGC	-0.092
CTGCTTCC	0.0659
CAACCTAG	-0.123
AGCCTGGG	-0.0641
AATGCTCC	0.119
CAGTCCCA	-0.198
GTCGAAAA	-0.122
ATAATGGC	-0.0423
ATCCGGGG	0.398
AATTAACA	0.00024
TGGCGACA	-0.0476
TAAAACTA	-0.0756
CACTGCCA	-0.176
AAGGTGTA	-0.155
ACAACTCC	0.0549
GCGACTAC	-0.0905
ACTGGCTG	0.0417
CCATGCAA	0.017
AAAGCATT	-0.147
CGATCTAA	0.0211
GGGGGACC	-0.00314

Sequence	PBM E-score
AACCCAGT	-0.00645
AGAATGAT	-0.204
AAGTACTC	-0.16
CAATAGTA	-0.0984
GTTGTCCA	-0.329
GTTCGTAA	-0.0144
AAATCCAG	-0.141
AGCTGTGA	-0.0782
CTTTAGTA	-0.181
CGGCCCCA	-0.0168
ATCGAGCC	0.0138
GCTTAACA	-0.0152
TGAAGGCA	-0.188
CATGCATA	-0.204
TCGGTGCA	0.212
CTCACATA	-0.267
TAGTGGAA	-0.0485
CGGCGATC	0.113
CCGGCAGA	0.286
GCGCCGGA	0.31
ACGCTTAT	-0.157
GACCAGGC	-0.273
AGAGACAG	-0.143
AGATTAGC	-0.168
GTGCAGAA	-0.184

Sequence	PBM E-score
ATTTGGAA	0.0129
TAATTCCA	-0.106
CTAGGATC	-0.117
GAGTCCTA	-0.237
ATAGGGTA	-0.132
CTTGCGAC	-0.132
AACTCCAC	-0.133
AAGGTCAA	-0.349
GCAGAGCA	-0.206
GATGTCGA	-0.0791
CTAAGCCC	0.00404
TAGGAGCA	-0.165
AATATTTC	0.137
AGTTTGCG	-0.133
CGATCGTA	0.103
AAGAATGG	0.0251
CTGCCCTA	-0.125
AACTGGCG	-0.0401
CTACCTAG	-0.0103
AAGGTAAT	-0.0845
CGAGGGAC	-0.127
GTGATTAA	-0.141
GATTCTAC	0.0127
ACGGAATC	0.315
AAAAGTCG	0.115

Sequence	PBM E-score
TCGAGAGA	-0.174
GCACGACA	-0.206
ATACTCCA	-0.152
ACCCTGTG	-0.0916
CCCGGTTA	0.28
GCAGCCAC	0.0201
CGAACTCA	0.0607
AAACCAGT	-0.206
CGGCCGCA	0.152
CAATCTCA	-0.169
GCGGTTCC	0.197
AAACGCGT	-0.0406
AACTCCAT	0.0197
ATGACACA	-0.138
CTTCCTCA	-0.208
AATTGATA	-0.0766
CCCCTCTC	-0.0387
ATGATCGC	0.0386
AGCGGGAA	0.221
CGGATACA	0.433
AATTGACG	-0.0605
CCTTAACC	-0.0244
CCAGAGCA	0.0101
ACGATTAC	-0.287
GATTAGGC	-0.183

Sequence	PBM E-score
CATGGCCA	-0.248
CAGTACCA	-0.249
AGATCCTG	-0.136
CAGTGGAA	-0.0505
GTTACGCA	-0.238
CCGCATCA	0.136
ATTCTATA	0.0665
TCCTATCA	-0.218
ATACGCTG	-0.00378
CTAAGGTC	-0.262
GGACGAGA	-0.0521
CATGGGCG	-0.0118
CTACAAGC	-0.258
ACAAAATG	-0.118
GGTAGCGA	0.0366
CTCGTTCC	0.262
ATTCGTAA	-0.17
GATACCGC	0.154
ATCATGTA	-0.336
CGAGACCA	0.0434
CGTCACAA	0.0479
CAGTTAGA	-0.0952
AAGAACTC	-0.0745
GCCTGAGA	0.0275
ATGTCATG	-0.158

Sequence	PBM E-score
GCAAGCAC	-0.288
TATACACA	-0.228
ACACGGTA	0.0561
ACAACGGT	-0.14
TAGCTGCA	-0.234
ATATGGGC	-0.0282
AAACGATG	-0.0183
CCACCGAC	0.0739
AATCCTGC	-0.102
AAAGAGAT	-0.153
TACAGATA	0.125
GAAGAGCA	-0.15
ACGCGCAC	-0.0738
CTTGCTTA	-0.105
CAAGAGCA	-0.195
ATCCACCA	-0.0567
CCACGCAA	-0.116
GAAAAGGC	0.0682
ATATGCCA	-0.0602
AACCCGGT	0.18
TACACCGA	0.241
TCAACAAA	0.0952
GTGCCTGA	0.0135
AACACATA	-0.27
AAAACGGG	0.267

Sequence	PBM E-score
AGGCAGCC	-0.0544
AATTGGGG	-0.154
GAAGCTCA	-0.114
CGCCTCCC	-0.0433
AGAATGAA	-0.0545
TAGTTGGA	0.0791
AGACGGTA	-0.0458
TCGGCTAA	0.455
AACCCGTT	0.0797
GCTCAGAC	-0.19
ACTCGAGT	-0.303
CACCCAGC	0.0106
ACTAAGCT	-0.264
CACCACCG	0.143
AGACTGCC	-0.0159
AGCCAGTC	-0.0537
CCGTGGGC	0.207
AGAAGCGG	0.0719
AGTATGAA	0.108
AGTTTGAG	-0.092
ACTACAGG	-0.0576
CAGAGGGC	-0.151
ACTCGGAC	0.327
ATGACGAA	-0.22
CTACCAGC	-0.334

Sequence	PBM E-score
AAGTCCCC	-0.0961
CATAGTAG	-0.144
CTATGAGC	-0.173
TAGCTAGA	-0.202
AAGTACGG	0.0722
AACCCGGG	0.317
GAGGGTGA	-0.109
AATGCCGC	0.143
CGGCACCG	0.324
GAACAACC	0.0669
CACGACTC	-0.181
CAAACTTG	-0.0139
CAATGCTC	-0.0798
ATTGTAAG	-0.122
GCAGTCGC	-0.26
GGCCGTGA	0.125
ATAGGGGA	-0.156
GACGTTGC	-0.00479
ATATGCGC	-0.117
